Read counts are not given, so values of variants with three or more changes are uncertain.
B1: CPEB3 Ribozyme (parent)
chain: UAACAGGGGGCCACAGCAGAAGCGUUCACGUCGCAGCCCCUGUCAGAUUCUGGUGAAUCUGCGAAUUCUGCUGUAUAUCUC

Variants of: B1
Assay: self-cleavage, relative activity (ratio to wild type); higher = more cleavage; in vitro, sequencing
Procedure, shortened: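 Relative activity was defined as the cleaved/total read fraction for a variant divided by the same fraction for the unmutated ribozyme. CPEB3 self-cleaving ribozyme libraries were made by rounds of error-prone PCR, barcoded, and transcribed in vitro with T7 RNA polymerase for 5 hours at 37°C, and cleavage ran through transcription plus a 15 min DNase I step before EDTA. Illumina sequencing of template-switched reverse transcripts gave the reads, and DNA sequencing mapped the barcodes. Averages come from three batches, using variants with at least 5 reads.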

Variant	self-cleavage
C11A A13G A35G C37A U72C	0.05
C11A U43C U48C A65G A75G	0.2
C11A G16U G30A U66C A77U	0.05
C11A A28U U31C U69A	0.06
G10U U25C G61C U74A A75U	0.02
C11A A20G U78A	0.05
C11A U26C A28U U51A A57G U72A	0.03
C11G A15G A20U A45U	0.05
G10U C14U G24C U41G U80C	0.04
C11A A13G C37A A56U G70C	0.06
C11A A35G C40A U49C U69C	0.07
G10U C23G A47G U48A U49C A65G	0.06
G10U A20G G63A	0.21
C11A A15G A20G G53C U72C A75G	0.07
C11A A13U A35U G42U A45G U74C	0.07
G10U U26A U41C G63U	0.2
C11G A15U U31A	0.12
C11A U49C G61U U72C	0.13
G10U A21U U31C A64G	0.04
C11A A28U A45U	0.11
C11G A13U U48A U72A	0.09
C11A A20G A35G A45G	0.18
C11A C34U U51A U78C	0.05
C11A C23U U72C U78C	0.03

Variant	self-cleavage
C11A C39G U72C	0.05
C11A A13G U25A U43A U60A U78A	0.03
G10U A28G U41C U54G G55A	0.37
C11A A15U A20G U41A A47G U49C A64G	0.03
G10U A20G A35G C38U U41A U49C G63A	0.04
C11A C23G A35G U49A U54C U78C	0.02
C11A A28G C79U	0.35
C11A U25C U60C A64G U67C	0.06
C11A A15G U49A U72C U80C	0.09
C11A A13U A15U A20G C27A G36A U72C	0.27
G10U G19U G42A U58C	0.06
C11A A15G A35G	0.25
G10U U49A U58A A64G U67C U80C	0.05
C11G A15G C44U	0.23
C11A A20G G33A	0.28
G10U A56U U69C U72C U76C	0.07
C11A U25G U74C A75G	0.25
C11A A18G U72C U78C	0.33
G10U A28G C29U C38A A56G U58C U78A	0.03
G10U C32U G36U U41A U54C U67A A77U	0.05
C11A U67C U69C	0.08
G10U C29A U43G U60C	0.13
C11A A18G C27G	0.47
C11A A15G C38G U43C C44A U72C	0.06

Variant	self-cleavage
C11A A21G A45G U76A	0.07
C11G A15U U26A U51C	0.1
C11A A20U A28G A35U U72C U78C	0.03
C11G A13G A15U A20U A21U C40U U78C	0.06
C11A C17U A18U U25C U41A U60C U78C	0.06
G10U G30A U43G	0.07
C11G A15U C39A U69A U72A	0.13
C11A A45G U58C	0.06
G10U U49A A64G	0.58
C11A A15U G24A A47G U48C A56G A75U	0.03
C11A A20G A28G	0.3
C11A A35G A57C U78C	0.41
C11G A13U A18U A64U U69G	0.1
G10U C23A A35G U41C U67C	0.1
C11G A15G U78C	0.54
C11A C14U U26C U41G A77C	0.06
C11G A15U A21G A57G U78A	0.08
C11A U25C A35G U66C	0.3
G10U U26G U41A C62U U67C	0.06
C11G A15G A35U	0.07
C11G A15U A45G U80C	0.18
G10U C29U A45G	0.05
G10U U48C U60A U67C	0.12
C11G A15U U49A U60A A75C	0.1

Variant	self-cleavage
C11A A13G U54A A77C	0.31
C11A U54C A65C U67C	0.08
C11G A15U A20U U41A A56G U66C	0
C11A A15U A28U U51C U58C	0.07
C11A A13G C29U C39G U54C U72C	0
C11G A13G A75G	0.41
C11A A21G A28G	0.06
C11A U26C U60C	0.04
C11G A15G U80C	0.2
C11G A13G C27G C62G U74C	0.04
G10U U41A C62U U67C A77G	0.1
G10U C37A G70A	0.13
C11A A56G U80C	0.38
C11A U26C C62U U76A	0.05
C11A U51C U76C	0.4
C11G A13G U25C C32U U60C U67C	0.04
C11A A15C A77C U80C	0.24
C11G A15U A45G A64G U76C	0.08
G10U A20G U41A	0.32
C11A G30A U31C U69C	0.21
G10U A21G U25C U31A G33U U43A U78C	0.05
G10U U25C U58C	0.14
G10U A21G U41C G55U	0.51
G10U U60C U72A	0.12

Variant	self-cleavage
C11A A18G A64U	0.21
C11A U60G C68U	0.08
C11G A13G A28G C40U U51C C59G A77G	0.05
C11A A56U U72C	0.29
C11A U25A A35G A57G A65G U72C	0.05
C11A A21G C32A U43C U67A	0.04
G10U A57G C62U C79A	0.06
C11A U26A A45G U48A	0.03
C11G A15U A45G U72C	0.23
G10U A21G U31A C39U A64U U67C U76A	0.03
C11A U31A U60C	0.05
C11A G30A A57C U67A	0.04
C11A C17G A45G U67A	0.04
C11A A18G U26A U51C C62U	0.04
G10U U43C U51G U60C G73C	0.06
G10U U25A U80C	0.18
C11A U26C U41C A47U	0.06
C11A U25C A28U G33U	0.07
C11A A21U A47G	0.3
G10U U25C U72C	0.18
C11A A45G U78C	0.29
C11A U25C A56U U80A	0.05
C11G A15C A45U U67C	0.15
G10U A64U U74C A75C	0.07

Variant	self-cleavage
C11A C34A U78C	0.29
C11A A13U U69A	0.07
C11A U43A A45G U78G U80C	0.19
G10U U31G A64G G70C	0.13
C11G A13G U43C	0.41
C11A A15G A75G	0.43
C11G A15U U51A	0.36
C11A A13C A18G U48A U69C	0.05
C11A G16C C32U A35G U43C G46C U54C	0.03
C11A A28G C40U A45G A64U	0.05
G10U U54G G70A	0.11
C11G A13U A15G A65G C68A U69A	0.06
C11G A15G A45U U78C	0.08
C11A A21G A57U	0.06
C11A A21G A57G	0.09
C11A A15U A65G	0.17
C11A A21G G24A A35U A56G	0.04
G10U U26C C40U A56U A57G	0.06
C11G A13G A18U A28G U31C U54C U80C	0
G10U A35G A45G A57G U60A	0.06
C11A A21G U66C U72C	0.5
G10U U51A U60A G70A U80C	0.12
C11A U43A U48C	0.32
C11A C14A A64U U69C	0.09

Variant	self-cleavage
C11A A15G U54C U76A	0.42
C11A A13U A47G U78C	0.2
C11A A20C U31A A65U U66C	0.1
C11A A13G A57G A64U	0.28
G10U G24A U54C U58C	0.08
G10U G16U A28G U80C	0.07
C11A C12U C23A U54A A77U	0.33
C11A A15U C32U A35G U43C	0.05
G10U A28U U41A U48C U54C A56G U72G	0.03
C11A G63A U72C	0.47
G10U A28G C50U U54C	0.05
G10U A28C C50A	0.32
G10U C12U U49C U76C	0.05
C11A U41C U60G U66C	0.11
C11G A13U U41A U49C A57G U80C	0.08
C11G A15U G30C A35U U80C	0.07
C11A C23A U31A A45U U66G U69C C79A	0.02
C11A A13G A47G U67G	0.14
C11A G46U U48A U51A C62U	0.15
C11A A21G U41A A57G	0.18
C11A U41G U49C	0.07
C11G A13U A28G U69C U78C	0.06
C11A C32U G42A U51A U54C U76A	0.03

Reference: the RNAGym collection of RNA variant scans (doi:10.1093/nar/gkz1192)
